Laboratory results published in PubChem BioAssay AID1346428 (National Center for Advancing Translational Sciences (NCATS), 2018).
About 1,200 (2.5%) of roughly 48,000 compounds were called active. Another 2% or so got no clear call; they are omitted.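 How the source made its calls: active means activation of at least 60% and not above a set upper limit (about 1 call in 100 departs from these limits); inconclusive means activation of 40% to 60%, or above that upper limit; inactive means activation under 40%.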 This is one part of the list.

Target: Probable G-protein coupled receptor 32 (Homo sapiens) (UniProt O75388)
Test: qHTS for Agonists of Human Resolvin D1 Receptor DRV1; further: 0% is about no effect
Details: CHO-K1 GPR32 beta-arrestin PathHunter luminescence, 90 min; at 76.9 µM; hits give high values; zero percent set by DMSO-only wells
Method in brief: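 Agonism was scored by beta-Gal fragment complementation (chemiluminescent read, 1 h detection at ambient temperature) reporting beta-arrestin binding to GPR32 in engineered CHO-K1 cells. Compound treatment lasted 90 min at 37 C, normalized to a DMSO basal control.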

UniProt O75388, sequence (O75388 whole entry, looked up): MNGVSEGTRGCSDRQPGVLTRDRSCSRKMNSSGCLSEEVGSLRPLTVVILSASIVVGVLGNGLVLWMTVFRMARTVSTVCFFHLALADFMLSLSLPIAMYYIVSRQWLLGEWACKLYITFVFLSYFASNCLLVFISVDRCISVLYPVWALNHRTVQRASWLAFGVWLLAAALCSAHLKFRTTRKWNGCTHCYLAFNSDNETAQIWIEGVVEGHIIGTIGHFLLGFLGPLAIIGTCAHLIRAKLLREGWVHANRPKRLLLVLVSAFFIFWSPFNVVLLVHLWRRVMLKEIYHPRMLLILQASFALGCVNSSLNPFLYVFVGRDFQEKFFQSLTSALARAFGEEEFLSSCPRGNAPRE

Compound	activation
Cc1ccc2nc(N3CCN(C(=O)C4COc5ccccc5O4)CC3)sc2c1 (stereo not given)	inactive: -15.7%
COc1ccc(/C=N/NC(=O)c2ccncc2)cc1OC	inactive: 3.32%
COc1ccc(-c2nc3ccccc3o2)cc1NC(=O)c1ccc(N2CCC(C)CC2)c([N+](=O)[O-])c1	inactive: -5.96%
COc1ccc(CNC(=O)c2cc3c(=O)n(Cc4cccs4)ccc3nc2C)cc1	inactive: -24.5%
CCOC(=O)c1sc(NC(=O)c2nc(SCC)ncc2Cl)c(C(=O)OCC)c1C	inactive: -4.49%
CN(C)CCNC(=O)Cc1ccc(NC(=O)N2CCCCc3ccccc32)cc1	inactive: -9.18%
COc1ccc(Cl)cc1NC(=O)c1c(C(=O)Nc2cccc(C)c2C)sc2nc(C)cc(=O)n12	inactive: 10.9%
CCOC(=O)c1cc(-c2ccc(C)cc2)n(CC(=O)Nc2cccc(C(C)=O)c2)c1C	inactive: -2.67%
Cc1ccc(C(=O)c2cn(Cc3ccc(F)cc3)c3nc(C)ccc3c2=O)cc1	inactive: 4.77%
COCCCn1c(=N)c(S(=O)(=O)c2ccccc2)cc2c(=O)n3cccc(C)c3nc21	inactive: 1.87%
CC1(C)CC(=O)c2cc(C(=O)Nc3ccc(Br)cc3)c(=O)n(-c3ccc(Cl)cc3)c2C1	inactive: -5.23%
Cc1oc(-c2ccccc2F)nc1Cn1c(SCc2ccccc2F)nc2ccncc21	inactive: -19.7%
CCn1cc2nc(SCc3cc(C)ccc3C)n(Cc3ccc(C)cc3)c(=O)c2n1	inactive: -20.9%
Cc1ccccc1OCc1nc2c3cnn(-c4ccccc4Br)c3ncn2n1	inactive: -0.726%
COc1ccccc1N1CCN(C(=O)CCSCc2ccccc2F)CC1	inactive: -15.1%
COc1ccc(Nc2oc(/C=C/c3ccc(F)cc3)nc2C#N)cc1	inactive: -29.8%
Cc1ccc(C2c3cccn3CCN2S(=O)(=O)c2ccc([N+](=O)[O-])cc2)cc1 (stereo not given)	inactive: -3.84%
O=C(Cn1c(=O)oc2ccccc21)NCc1ccccc1Cl	inactive: -9.46%
O=C(CSc1nc(-c2ccco2)nc2cc(=O)[nH]n12)Nc1ccccc1Cl	inactive: 25.7%
CCOc1ccc2ncc3c(-c4ccccc4)nn(CC(=O)Nc4cccc(F)c4)c3c2c1	inactive: -2.37%
COc1ccc(-n2c(-c3ccc(F)cc3)cn3c4c(=O)n(C)c(=O)n(C)c4nc23)cc1	inactive: -22.3%
COc1ccccc1CNC(=O)Cn1c(=O)oc2ccccc21	inactive: -13.6%

Compound	activation
COc1cc2[nH]c(=O)n(CCCC(=O)NCc3ccccc3Cl)c(=O)c2cc1OC	inactive: 20.5%
Cc1cc(OCCn2c(C3CC(=O)N(Cc4ccc(F)cc4)C3)nc3ccccc32)ccc1Cl (stereo not given)	inactive: -11.3%
COCCCNC(=O)C1CCN(c2nnc(-n3cccc3CNc3ccc(C)cc3)s2)CC1	inactive: -18.2%
CCCn1cc(S(=O)(=O)c2cccc(Cl)c2)c(=O)c2cc(F)c(N3CCN(CC)CC3)cc21	inactive: -9.33%
O=C(CSc1nc2c(c(=O)[nH]1)CCCC2)Nc1cccc(O)c1	inactive: 17.4%
COCCCNC(=O)Cn1c(=O)n(-c2cccc(C)c2)c(=O)c2c3c(sc21)CN(C(C)=O)CC3	inactive: -4.21%
O=C1OC(c2ccc(O)cc2)(c2ccc(O)cc2)c2ccccc21	inactive: 12%
COC(=O)c1ccccc1NC(=O)CSc1nc2sc3c(c2c(=O)[nH]1)CCCC3	inactive: -7.68%
COc1cccc(CNC(=O)Cn2cc3c(n2)-c2c(oc(C(=O)N4CCOCC4)c2C)CC3)c1	inactive: 10.3%
COc1ccc(S(=O)(=O)N2Cc3ccccc3CC2C(=O)Nc2cccc(C)c2)cc1OC (stereo not given)	inactive: -0.697%
CCCCn1c(CCNC(=O)c2ccc(F)cc2)nc2ccccc21	inactive: 39.3%
COc1cc(C(=S)N2CCOCC2)ccc1O	inactive: 23.8%
COc1ccccc1CNc1nc(-c2ccco2)nn1C(=O)c1ccccc1[N+](=O)[O-]	inactive: -12.3%
COc1ccc(-c2cc(C(F)(F)F)nc(S(=O)(=O)CCCC(=O)Nc3ccccc3C(F)(F)F)n2)cc1OC	inactive: -15.1%
Cc1cc(=O)n2c(C(=O)Nc3ccc(C)c(C)c3)c(C(=O)Nc3ccccc3)sc2n1	inactive: -15.9%
CN(C)c1ccc(CNc2nc(-c3ccco3)nn2S(=O)(=O)c2ccc(Cl)cc2)cc1	inactive: -14.6%
CCN(C(=O)CSc1nnc(-c2ccc(Cl)cc2)o1)c1ccccc1	inactive: 31.4%
CCc1cccc(C)c1NC(=O)C1CCCN(S(=O)(=O)c2cccc3nsnc23)C1 (stereo not given)	inactive: 33.7%
CCc1ccccc1N(C)C(=O)C1CCCN(c2ncnc3onc(-c4ccc(F)cc4)c23)C1 (stereo not given)	inactive: -13.7%
Cc1ccc(OCCn2c(CNc3cccc(C)c3)nc3ccccc32)cc1	inactive: -20.6%
CCCN1CCc2nc(N3CCN(CC)CC3)ncc2C1	inactive: -13.2%
CCOc1cccc(C(=O)Nc2c(C(=O)c3ccc(OC)cc3)oc3ccccc23)c1	inactive: -10.3%

Compound	activation
COc1ccccc1CNc1cc(-c2ccccc2)nc2nncn12	inactive: -25.9%
CS(=O)(=O)NCC(c1ccco1)N1CCN(c2ccccc2)CC1 (stereo not given)	inactive: -24.9%
CC(=O)c1ccc(C(=O)N(CCCN(C)C)c2nc3c(C)c(C)ccc3s2)cc1	inactive: 7.35%
COc1ccc(N2Cc3cccc(C(=O)Nc4ccc(C(C)C)cc4)c3C2=O)cc1	inactive: -7.56%
CCCCOC(=O)c1ccc(NC(=O)c2cc(-c3ccccc3)on2)cc1	inactive: -0.556%
O=C(CN(c1ccc(Cl)c(C(F)(F)F)c1)S(=O)(=O)c1ccccc1)N1CCc2ccccc2C1	inactive: -5.36%
C=CCc1ccc(O)c(OC)c1	inactive: 19.8%
Cc1nc2ccn(Cc3cccs3)c(=O)c2cc1C(=O)N1CCN(c2ccc(F)cc2)CC1	inactive: -18.7%
Cc1ccc(NC(=O)c2sc(-n3nc(C)c(CCC(C)C)c3C)nc2C)cc1C	inactive: -11.1%
CCc1ccc(NC(=O)Cn2c(=O)c(-c3ccccc3NC(C)=O)nc3ccccc32)cc1	inactive: -17.2%
OC[C@@H](O)[C@@H](O)[C@H](O)[C@H](O)CO	inactive: -15.5%
O=C(NCc1ccc(F)cc1)c1ccc(CS(=O)(=O)c2ccc(Cl)cc2)o1	inactive: 2.43%
Oc1c(C(c2ccc(Cl)cc2Cl)N2CCOCC2)sc2nc(-c3ccco3)nn12 (stereo not given)	active: 89.9%
CC(=O)N[C@@H](Cc1ccc(O)cc1)C(=O)O	inactive: 2.39%
COc1cccc(CNC(=O)CSc2nc(=O)[nH]c3c2CCCC3)c1	inactive: -1.04%
CCn1ccc2cc(S(=O)(=O)N3CCCN(C(=O)Nc4ccccc4C(F)(F)F)CC3)ccc21	inactive: -1.48%
CCOc1ccc(S(=O)(=O)N(CC(=O)NCCSCc2ccc(C)cc2)c2ccccc2)cc1	inactive: 12.9%
Cc1ccc2c(=O)cc(C(=O)Nc3nnc(CC(C)C)s3)oc2c1C	inactive: 0.246%
Cc1cccc(Cn2c(=O)n(CCC(=O)NCc3ccc4c(c3)OCO4)c(=O)c3sccc32)c1	inactive: -29.4%
CC1CCN(S(=O)(=O)c2ccc(N3CCCCS3(=O)=O)cc2)CC1	inactive: 10.5%
COc1ccc(CCNC(=O)Cn2cc(S(=O)(=O)Cc3ccccc3F)c3ccccc32)cc1OC	inactive: 3.63%
O=C(CC1N=C2c3ccccc3N=C(SCC(=O)Nc3cccc(Cl)c3)N2C1=O)NCc1cccs1 (stereo not given)	inactive: -28%

Compound	activation
Cc1ccc(C)n1-c1nnc(N2CCC(C(=O)Nc3ccccc3Br)CC2)s1	inactive: -11.3%
CCc1ccc(NC(=O)c2ccc3c(c2)N(Cc2ccc(C)cc2)CCS3)cc1	inactive: -13.4%
CCn1c(SCC(=O)Nc2ccc(C)cc2Br)nnc1-c1nonc1NC(C)=O	inactive: -9.89%
COc1ccc2c(c1)Cc1sc(NC(=O)c3ccccc3Br)nc1-2	inactive: -21.9%
COc1ccccc1C(=O)NCc1ccc2c(c1)CCN2C(=O)c1cccc(C)c1	inactive: -9.45%
COc1ccc(N2CCN(C(=O)C3CCN(S(=O)(=O)c4cnc[nH]4)CC3)CC2)cc1	inactive: -4.74%
CCOC(=O)Cn1c(=O)oc2cc(S(=O)(=O)Nc3cc(OC)cc(OC)c3)ccc21	inactive: 11.4%
COC(=O)C1=C(C)NC(COC(N)=O)=C(C(=O)OC(C)C)C1c1cccc(Cl)c1Cl (stereo not given)	active: 86.1%
CCc1ccccc1Nc1nn2c(=O)c3ccc(C(=O)NCc4cccs4)cc3nc2s1	inactive: -34.5%
CCn1c(C)c(C)c2cc(C(=O)NCCc3cc(OC)c(OC)c(OC)c3)ccc21	inactive: -4.71%
CCc1ccc(S(=O)(=O)c2nnn3c2nc(NCc2cccs2)c2sccc23)cc1	inactive: -13%
CN1CCN(C(c2ccc(F)cc2)c2sc3nc(-c4ccco4)nn3c2O)CC1 (stereo not given)	inactive: 2.89%
Cc1cccc(C(=O)Nc2cccc(C(=O)OCc3cc(=O)n4c5c(sc4n3)CCCC5)c2)c1	inactive: -29.5%
COc1ccc(-c2c3c(=O)n(C)c(=O)n(C)c3c3c(-c4ccccc4)nc4ccccc4n23)cc1	inactive: -11%
CC1(C)CCC=[N+]1[O-]	inactive: 0.0116%
O=C(Nc1ccccc1F)C(Cc1ccccc1)n1cccc1 (stereo not given)	inactive: -21.1%
O=C(Nc1ccc2nc(SCC(=O)N3CCOCC3)sc2c1)c1ccc(F)cc1	inactive: 2.63%
CNC(=O)c1cc2c(n(-c3ccc(C)cc3)c1=O)CC(C)(C)CC2=O	inactive: 12.4%
Cc1cc(C)c(Nc2nn3c(=O)c4cc5c(cc4nc3s2)OCO5)c(C)c1	inactive: 6.17%
